Experimental data as given in patent US20260184782A1 (TWIST BIOSCIENCE, published 2026).
Substitutions are numbered along the chain they refer to.

T1: TIGIT (UniProt Q495A1 22-141, limits assumed)
T1 construct: also called T cell immunoreceptor with Ig and ITIM domains; hTIGIT
T1 sequence (looked up): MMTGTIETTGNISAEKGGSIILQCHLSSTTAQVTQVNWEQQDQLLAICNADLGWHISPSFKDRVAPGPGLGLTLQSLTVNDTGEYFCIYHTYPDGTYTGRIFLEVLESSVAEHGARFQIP

B1: TIGIT-30-58 (VHH-Fc) (Fc fusion)
chain: EVQLVESGGGLVQAGGSLRLSCAASGFAFGDSWMGWFRQAPGKEREWVSGISSGGGRTYYADSVKGRFTISADNAKNTVYLQMNSLKPEDTAVYYCAADVWYGSTWRNWGQGTQVTVSSGGGGS[in this place human IgG1 Fc with C220S (EU numbers)]
B2: TIGIT-31-35 (VHH-Fc) (Fc fusion)
chain: EVQLVESGGGLVQPGGSLRLSCAASGFTFSTSWMGWFRQAPGKERELVASITSGGTTNYADSVKGRFTISADNSKNTAYLQMNSLKPEDTAVYYCAADVWYGSTWRNWGQGTLVTVSSGGGGS[in this place human IgG1 Fc with C220S (EU numbers)]
B3: TIGIT-31-01 (VHH-Fc) (Fc fusion)
chain: B2 chain with S30D, T31R, L47V, T56S, N58Y
notes: also called TIGIT-31-1; 31-1
B4: TIGIT-31-11 (VHH-Fc) (Fc fusion)
chain: B2 chain with L47F, T52S, S53T, G54S, T56N, N58F
B5: TIGIT-31-13 (VHH-Fc) (Fc fusion)
chain: B2 chain with S30D, T31R, L47W
B6: TIGIT-31-16 (VHH-Fc) (Fc fusion)
chain: B2 chain with A49V, I51V, T56Y
B7: TIGIT-31-17 (VHH-Fc) (Fc fusion)
chain: B2 chain with F29M, T31S, L47W, T52N, T57R
B8: TIGIT-31-18 (VHH-Fc) (Fc fusion)
chain: B2 chain with T31G, S32N, L47F, T52S, G55S, T56A, T57I
B9: TIGIT-31-20 (VHH-Fc) (Fc fusion)
chain: B2 chain with T31G, S32N, L47F, S50G, T52L, G54D, T56R, T57E, N58L
B10: TIGIT-31-31 (VHH-Fc) (Fc fusion)
chain: B2 chain with F29L, T31G, S32N, L47F, T52S, T56G
B11: TIGIT-31-33 (VHH-Fc) (Fc fusion)
chain: B2 chain with T56S
B12: TIGIT-31-36 (VHH-Fc) (Fc fusion)
chain: B2 chain with S30D, T31R, I51V
B13: TIGIT-31-38 (VHH-Fc) (Fc fusion)
chain: B2 chain with S30D, T31R, T56S, N58S
B14: TIGIT-31-39 (VHH-Fc) (Fc fusion)
chain: B2 chain with S50G, I51V, T52N, G54N, T56Y, T57I
B15: TIGIT-31-42 (VHH-Fc) (Fc fusion)
chain: B2 chain with S32H, L47F, T52G, G54S, N58R
B16: TIGIT-31-44 (VHH-Fc) (Fc fusion)
chain: B2 chain with T31G, S32N, L47W, T52S
B17: TIGIT-31-45 (VHH-Fc) (Fc fusion)
chain: B2 chain with T31G, S32N, L47F, S50G, I51V, T52N, G54N, T56Y, T57I
B18: TIGIT-31-46 (VHH-Fc) (Fc fusion)
chain: B2 chain with S30D, T31R, N58S
B19: TIGIT-31-47 (VHH-Fc) (Fc fusion)
chain: B2 chain with T31G, S32N, L47W, A49V, S50G, T52S, T57P, N58H
B20: TIGIT-31-48 (VHH-Fc) (Fc fusion)
chain: B2 chain with F29L, T31S, S32N, S50G, I51V, T52N, G54N, T56Y, T57I
B21: TIGIT-31-50 (VHH-Fc) (Fc fusion)
chain: B2 chain with F29M, T31S, L47F, A49G, S50G, T52S, T56S, N58Y
B22: TIGIT-31-52 (VHH-Fc) (Fc fusion)
chain: B2 chain with S30D, T31R, L47F, S50G, G54S, T56I, T57P
B23: TIGIT-31-54 (VHH-Fc) (Fc fusion)
chain: B2 chain with S50A, I51V, T56N
B24: TIGIT-31-02 (VHH-Fc) (Fc fusion)
chain: EVQLVESGGGLVQPGGSLRLSCAASGRTFGDYIMGWFRQAPGKERELVAEITRSGRTNYADSVKGRFTISADNSKNTAYLQMNSLKPEDTAVYYCAAVFSRGPLTWGQGTLVTVSSGGGGS[in this place human IgG1 Fc with C220S (EU numbers)]
B25: TIGIT-31-55 (VHH-Fc) (Fc fusion)
chain: B24 chain with S54V, R56N
B26: TIGIT-31-03 (VHH-Fc) (Fc fusion)
chain: EVQLVESGGGLVQPGGSLRLSCAASGFTFSGNWMGWFRQAPGKEREFVASISSSGISTYYADSVKGRFTISADNSKNTAYLQMNSLKPEDTAVYYCAADVWYGSTWRNWGQGTLVTVSSGGGGS[in this place human IgG1 Fc with C220S (EU numbers)]
B27: TIGIT-31-21 (VHH-Fc) (Fc fusion)
chain: B26 chain with F29L, T69I

Key:
[1] = molecular target: T1, TIGIT; experiment: SPR (Carterra), VHH-Fc
[2] = molecular target: T1, TIGIT; experiment: ELISA

| Binder | Kd [1] [nM] | koff [1] [s⁻¹] | kon [1] [M⁻¹ s⁻¹] | ELISA [2] |
| --- | --- | --- | --- | --- |
| B1 | 1050 | 18 | 1.7e+07 | 3.3 |
| B2 | 66 | 0.032 | 480000 | 5.7 |
| B3 | 12 | 0.0035 | 280000 | 5.7 |
| B4 | 118 | 0.042 | 360000 | 4.5 |
| B5 | 409 | 0.033 | 80000 | 7.3 |
| B6 | 151 | 0.037 | 240000 | 9.2 |
| B7 | 166 | 0.025 | 150000 | 8.7 |
| B8 | 99 | 0.54 | 5.4e+06 | 4.1 |
| B9 | 74 | 0.0092 | 120000 | 6.6 |
| B10 | 104 | 0.054 | 520000 | 6.7 |
| B11 | 96 | 0.051 | 530000 | 6 |
| B12 | 102 | 0.041 | 410000 | 5.6 |
| B13 | 172 | 0.062 | 360000 | 4.8 |
| B14 | 78 | 0.0082 | 100000 | 9.9 |
| B15 | 371 | 240 | 6.5e+08 | 9.6 |
| B16 | 140 | 0.049 | 350000 | 9.2 |
| B17 | 193 | 0.03 | 150000 | 8.6 |
| B18 | 132 | 0.027 | 210000 | 7.6 |
| B19 | 53 | 0.0059 | 110000 | 8.8 |
| B20 | 175 | 19 | 1.1e+08 | 3.3 |
| B21 | 551 | 0.036 | 66000 | 6.7 |
| B22 | 308 | 260 | 8.4e+08 | 6.5 |
| B23 | 107 | 0.018 | 170000 | 9 |
| B24 | 216 | 0.054 | 250000 | 8.4 |
| B25 | 154 | 0.033 | 210000 | 7.9 |
| B26 | 116 | 0.03 | 260000 | 9.5 |
| B27 | 122 | 0.02 | 160000 | 9.4 |
